Measurements: paper PMC10281526, “Polydom/SVEP1 binds to Tie1 and promotes migration of lymphatic endothelial cells” (The Journal of Cell Biology, 2023)
No constants are given. Whether binding was seen depends on the method and setting. Some results given as binding are weak or reduced against the parent protein; the word gives no strength. For part of these data: Tags and fused reporters may be left off the sequences shown.

Sequences of proteins named here, by UniProt entry; tags and fusion partners are left off. A change or cut given only in a name is not applied to a line headed by its entry. Residues count along the entry.
recombinant full-length mouse Polydom (A2AVA0, residues 18-3567): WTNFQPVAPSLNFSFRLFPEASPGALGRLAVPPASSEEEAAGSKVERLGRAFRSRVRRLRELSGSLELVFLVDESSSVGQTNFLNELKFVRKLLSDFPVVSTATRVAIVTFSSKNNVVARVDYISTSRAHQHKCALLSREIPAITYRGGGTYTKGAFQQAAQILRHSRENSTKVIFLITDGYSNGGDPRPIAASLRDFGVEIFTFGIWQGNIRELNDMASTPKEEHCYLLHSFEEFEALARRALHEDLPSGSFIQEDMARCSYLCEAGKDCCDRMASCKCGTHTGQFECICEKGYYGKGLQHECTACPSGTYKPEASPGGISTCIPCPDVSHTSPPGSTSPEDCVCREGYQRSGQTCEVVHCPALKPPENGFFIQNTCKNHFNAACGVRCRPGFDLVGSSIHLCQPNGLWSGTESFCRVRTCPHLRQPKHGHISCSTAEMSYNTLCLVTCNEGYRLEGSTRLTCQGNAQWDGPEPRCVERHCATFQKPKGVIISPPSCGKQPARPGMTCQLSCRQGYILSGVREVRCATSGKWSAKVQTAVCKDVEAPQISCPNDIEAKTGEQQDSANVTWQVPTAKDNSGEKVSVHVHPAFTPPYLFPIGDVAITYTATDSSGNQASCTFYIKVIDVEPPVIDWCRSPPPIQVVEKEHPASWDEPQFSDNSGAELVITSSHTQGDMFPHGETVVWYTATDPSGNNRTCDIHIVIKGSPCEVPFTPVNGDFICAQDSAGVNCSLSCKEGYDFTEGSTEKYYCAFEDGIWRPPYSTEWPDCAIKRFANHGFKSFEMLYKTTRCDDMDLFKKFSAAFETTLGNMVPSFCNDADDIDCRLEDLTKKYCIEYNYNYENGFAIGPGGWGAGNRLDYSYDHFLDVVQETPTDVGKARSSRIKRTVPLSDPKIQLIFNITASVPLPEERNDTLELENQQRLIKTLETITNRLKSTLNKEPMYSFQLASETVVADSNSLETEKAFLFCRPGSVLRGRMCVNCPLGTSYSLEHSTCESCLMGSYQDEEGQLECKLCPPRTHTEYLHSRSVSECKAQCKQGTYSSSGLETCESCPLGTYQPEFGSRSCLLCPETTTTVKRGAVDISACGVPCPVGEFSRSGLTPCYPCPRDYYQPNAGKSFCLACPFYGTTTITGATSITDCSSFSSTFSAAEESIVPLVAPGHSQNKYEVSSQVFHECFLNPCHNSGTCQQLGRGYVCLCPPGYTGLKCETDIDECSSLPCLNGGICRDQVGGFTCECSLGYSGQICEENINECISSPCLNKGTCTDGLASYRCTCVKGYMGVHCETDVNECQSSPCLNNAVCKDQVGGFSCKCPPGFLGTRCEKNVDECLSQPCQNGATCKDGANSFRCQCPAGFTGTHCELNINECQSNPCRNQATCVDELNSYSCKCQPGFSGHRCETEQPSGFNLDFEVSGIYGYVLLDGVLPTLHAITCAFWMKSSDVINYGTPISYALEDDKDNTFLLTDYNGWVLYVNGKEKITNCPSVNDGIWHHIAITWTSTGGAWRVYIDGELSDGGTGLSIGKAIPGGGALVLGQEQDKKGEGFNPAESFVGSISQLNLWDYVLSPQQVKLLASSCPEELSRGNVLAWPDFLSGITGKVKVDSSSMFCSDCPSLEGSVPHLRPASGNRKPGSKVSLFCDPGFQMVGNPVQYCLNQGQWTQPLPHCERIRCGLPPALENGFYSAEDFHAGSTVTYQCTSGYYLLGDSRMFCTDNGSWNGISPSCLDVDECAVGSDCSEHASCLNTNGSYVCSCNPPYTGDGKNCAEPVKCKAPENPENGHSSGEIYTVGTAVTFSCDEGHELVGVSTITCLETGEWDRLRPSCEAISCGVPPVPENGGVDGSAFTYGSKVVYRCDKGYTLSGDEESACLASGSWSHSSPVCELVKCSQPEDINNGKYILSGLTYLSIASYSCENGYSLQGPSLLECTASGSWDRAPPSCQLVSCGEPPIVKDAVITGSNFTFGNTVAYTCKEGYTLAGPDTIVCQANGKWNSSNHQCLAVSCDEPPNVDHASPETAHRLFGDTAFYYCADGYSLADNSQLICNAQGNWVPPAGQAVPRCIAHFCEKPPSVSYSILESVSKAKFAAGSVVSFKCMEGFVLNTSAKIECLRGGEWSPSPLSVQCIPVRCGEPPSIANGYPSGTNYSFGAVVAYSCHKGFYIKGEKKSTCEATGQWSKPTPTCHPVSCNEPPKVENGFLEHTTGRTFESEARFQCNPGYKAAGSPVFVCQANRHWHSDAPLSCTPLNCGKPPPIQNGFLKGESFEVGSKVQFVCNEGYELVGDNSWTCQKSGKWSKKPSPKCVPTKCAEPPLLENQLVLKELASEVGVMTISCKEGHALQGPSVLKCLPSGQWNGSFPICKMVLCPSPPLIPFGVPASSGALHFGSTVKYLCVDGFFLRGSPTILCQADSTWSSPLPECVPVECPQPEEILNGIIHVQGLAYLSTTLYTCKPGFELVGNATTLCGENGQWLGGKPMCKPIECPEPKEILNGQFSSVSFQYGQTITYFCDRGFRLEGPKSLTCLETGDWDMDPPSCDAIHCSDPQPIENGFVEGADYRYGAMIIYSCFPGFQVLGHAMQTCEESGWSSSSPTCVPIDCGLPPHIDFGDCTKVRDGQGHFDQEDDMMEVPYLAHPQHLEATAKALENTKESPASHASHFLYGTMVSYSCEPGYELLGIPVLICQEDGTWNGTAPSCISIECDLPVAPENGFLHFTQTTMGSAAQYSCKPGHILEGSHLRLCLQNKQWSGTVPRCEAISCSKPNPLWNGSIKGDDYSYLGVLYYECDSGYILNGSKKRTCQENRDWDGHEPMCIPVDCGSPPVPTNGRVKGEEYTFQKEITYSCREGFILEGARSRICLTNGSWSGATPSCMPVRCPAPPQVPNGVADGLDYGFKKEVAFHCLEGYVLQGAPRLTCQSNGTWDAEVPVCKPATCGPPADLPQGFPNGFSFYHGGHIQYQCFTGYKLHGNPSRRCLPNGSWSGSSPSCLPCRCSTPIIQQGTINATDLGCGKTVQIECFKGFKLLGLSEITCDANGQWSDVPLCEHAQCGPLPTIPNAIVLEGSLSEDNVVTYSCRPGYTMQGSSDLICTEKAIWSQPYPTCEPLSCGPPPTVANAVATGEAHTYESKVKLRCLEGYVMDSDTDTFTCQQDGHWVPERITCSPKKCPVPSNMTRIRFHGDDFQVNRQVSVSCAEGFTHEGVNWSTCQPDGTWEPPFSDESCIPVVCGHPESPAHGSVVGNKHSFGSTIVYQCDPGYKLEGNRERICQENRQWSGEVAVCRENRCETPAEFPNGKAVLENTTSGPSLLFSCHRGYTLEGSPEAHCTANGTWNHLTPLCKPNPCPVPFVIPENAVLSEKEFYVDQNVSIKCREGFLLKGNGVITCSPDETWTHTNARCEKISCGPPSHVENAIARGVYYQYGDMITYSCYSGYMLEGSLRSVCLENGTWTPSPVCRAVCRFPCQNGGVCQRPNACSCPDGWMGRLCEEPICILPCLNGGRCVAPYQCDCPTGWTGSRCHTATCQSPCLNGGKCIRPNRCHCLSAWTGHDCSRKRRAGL
UniProt P52799, residues 28-229: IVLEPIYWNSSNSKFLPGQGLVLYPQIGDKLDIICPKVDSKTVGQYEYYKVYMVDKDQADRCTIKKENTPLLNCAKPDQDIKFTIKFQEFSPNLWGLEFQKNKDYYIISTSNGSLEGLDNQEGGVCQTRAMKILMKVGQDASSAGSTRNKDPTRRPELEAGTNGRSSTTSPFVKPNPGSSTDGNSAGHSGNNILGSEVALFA
UniProt Q02763, residues 23-748: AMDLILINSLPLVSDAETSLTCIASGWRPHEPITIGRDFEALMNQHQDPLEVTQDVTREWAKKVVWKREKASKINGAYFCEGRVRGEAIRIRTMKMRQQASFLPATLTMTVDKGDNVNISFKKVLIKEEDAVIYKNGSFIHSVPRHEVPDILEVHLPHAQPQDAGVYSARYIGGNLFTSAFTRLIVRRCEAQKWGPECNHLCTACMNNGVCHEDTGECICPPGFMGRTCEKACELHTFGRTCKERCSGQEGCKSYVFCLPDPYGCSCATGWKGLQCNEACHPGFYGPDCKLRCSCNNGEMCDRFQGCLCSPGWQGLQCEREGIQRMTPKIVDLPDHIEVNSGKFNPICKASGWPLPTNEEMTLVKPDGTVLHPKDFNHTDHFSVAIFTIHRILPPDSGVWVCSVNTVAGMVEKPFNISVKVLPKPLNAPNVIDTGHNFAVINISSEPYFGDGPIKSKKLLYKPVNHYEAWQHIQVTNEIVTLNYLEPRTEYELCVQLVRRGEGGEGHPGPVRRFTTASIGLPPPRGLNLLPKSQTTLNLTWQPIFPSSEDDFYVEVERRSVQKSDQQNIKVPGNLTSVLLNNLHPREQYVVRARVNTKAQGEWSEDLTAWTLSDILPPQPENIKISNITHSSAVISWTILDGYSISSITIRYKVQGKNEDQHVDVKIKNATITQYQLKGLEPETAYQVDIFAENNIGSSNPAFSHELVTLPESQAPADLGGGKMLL

Legend:
[1] = target: T1, recombinant full-length mouse Polydom (mouse, UniProt A2AVA0 18-3567); assay: ELISA; reverse solid-phase binding assay, titration: full-length Polydom coated (10 nM by the legend), serially diluted Tie1-Fc or Tie2-Fc in solution, detected with HRP anti-human IgG against the Fc tag; apparent dissociation constant; both purified
T1 construct: Polydom (SVEP1), mouse, full length; expression vector as in Sato-Nishiuchi et al., 2012; The construct is described in Sato-Nishiuchi et al., 2012; also called SVEP1; full-length Polydom

[2] = target: extracellular region of human EphrinB2, FLAG-tagged Fc-fusion protein (human) (UniProt P52799); assay: ELISA; solid-phase binding assay: EphrinB2, Podoplanin, Tie1, Tie2 or integrin α9β1 coated at 5 μg/ml on Maxisorp plates overnight at 4°C; full-length Polydom (5 μg/ml) in solution, 2 h at room temperature, TBS with 0.1% BSA and 0.02% Tween-20; bound Polydom detected with anti-Pol-N antibody; integrin α9β1 in the absence or presence of 1 mM MnCl2; both purified
[3] = target: T2, extracellular region of human Podoplanin, FLAG-tagged Fc-fusion protein (human) (UniProt Q86YL7); assay: as above
T2 sequence: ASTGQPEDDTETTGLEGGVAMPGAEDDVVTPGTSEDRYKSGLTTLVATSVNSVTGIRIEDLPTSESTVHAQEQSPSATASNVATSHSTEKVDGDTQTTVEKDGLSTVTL

[4] = target: T3, recombinant Tie1 extracellular domain, Fc fusion protein (UniProt P35590); assay: as above
T3 sequence: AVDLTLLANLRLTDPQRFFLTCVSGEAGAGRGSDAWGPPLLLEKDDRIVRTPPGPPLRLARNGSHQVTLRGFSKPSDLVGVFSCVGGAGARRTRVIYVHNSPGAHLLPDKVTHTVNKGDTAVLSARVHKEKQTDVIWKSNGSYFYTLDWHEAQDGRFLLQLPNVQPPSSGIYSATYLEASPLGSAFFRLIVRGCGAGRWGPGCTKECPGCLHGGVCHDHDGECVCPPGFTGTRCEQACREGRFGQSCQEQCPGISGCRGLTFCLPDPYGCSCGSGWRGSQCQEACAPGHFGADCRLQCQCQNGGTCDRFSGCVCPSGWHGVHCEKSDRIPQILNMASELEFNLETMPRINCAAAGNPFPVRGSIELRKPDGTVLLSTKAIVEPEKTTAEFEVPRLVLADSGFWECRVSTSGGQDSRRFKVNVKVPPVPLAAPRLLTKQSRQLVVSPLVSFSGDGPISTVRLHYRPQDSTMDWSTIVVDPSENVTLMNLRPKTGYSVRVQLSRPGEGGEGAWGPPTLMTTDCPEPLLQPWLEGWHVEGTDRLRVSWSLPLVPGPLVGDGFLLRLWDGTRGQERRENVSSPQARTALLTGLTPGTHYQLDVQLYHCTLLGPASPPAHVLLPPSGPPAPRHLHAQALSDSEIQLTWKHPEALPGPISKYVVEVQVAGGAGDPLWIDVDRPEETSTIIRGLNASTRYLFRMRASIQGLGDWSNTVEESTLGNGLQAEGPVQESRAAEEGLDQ

[5] = target: recombinant Tie2 extracellular domain, Fc fusion protein (UniProt Q02763); assay: as above
[6] = target: full-length Polydom E2567A mutant (mouse) (UniProt A2AVA0); assay: ELISA; reverse solid-phase binding assay, one concentration: Polydom, Polydom deletion mutants or GST-fused Polydom fragments coated at 2 μg/ml, Tie1-Fc (2 μg/ml) in solution, detected with HRP anti-human IgG against the Fc tag; both purified

recombinant Tie2 extracellular domain, Fc fusion protein (from UniProt Q02763 23-748)
binding [1]: no binding

recombinant full-length mouse Polydom (from UniProt A2AVA0 18-3567)
binding [2]: no binding (tested: 5 μg/ml Polydom) | binding [3]: no binding (tested: 5 μg/ml Polydom) | binding [4]: binds | binding [5]: no binding (tested: 5 μg/ml Polydom)

B1: recombinant Tie1 extracellular domain, Fc fusion protein (Fc fusion, UniProt P35590 22-759, looked up)
chain: T3 sequence
notes: Tie1, extracellular domain, expressed as Fc fusion protein; The Fc tag was detected with an anti-human IgG antibody; also called Tie1 with an Fc tag; source: bought: R&D Systems
binding [6]: no binding
